From paper PMC9911399, “Two distinct binding modes provide the RNA-binding protein RbFox with extraordinary sequence specificity”
Changes are numbered by the printed parent chain; changes in the protein carry UniProt numbers. This is one part of the list.

T1: RBFOX1 RRM RbFoxmut (Fox-RRM*) (Homo sapiens, UniProt Q9NWB1 109-208, R118D;E147R;N151S;E152T)
T1 sequence: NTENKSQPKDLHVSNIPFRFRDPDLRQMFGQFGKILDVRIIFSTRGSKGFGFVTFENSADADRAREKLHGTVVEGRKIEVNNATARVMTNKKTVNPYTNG

B1: AGCAGCC (DNA:RNA)
RNA: GGGAGACCGGAAUUCAGAUUGUCCAGCAGCCUUAAAUCCCGUCGUAGCCACCA
DNA 1: CAATCTGAATTCCGGTCTCCC
DNA 2: TGGTGGCTACGACGGGATT
B2: UUAAAAA (DNA:RNA)
RNA: B1 RNA with A25U, G26U, C27A, G29A, C30A, C31A
DNA 1: CAATCTGAATTCCGGTCTCCC
DNA 2: TGGTGGCTACGACGGGATT
B3: GGUCAUA (DNA:RNA)
RNA: B1 RNA with A25G, C27U, A28C, G29A, C30U, C31A
DNA 1: CAATCTGAATTCCGGTCTCCC
DNA 2: TGGTGGCTACGACGGGATT
B4: CACAUUA (DNA:RNA)
RNA: B1 RNA with A25C, G26A, G29U, C30U, C31A
DNA 1: CAATCTGAATTCCGGTCTCCC
DNA 2: TGGTGGCTACGACGGGATT
B5: CACAAUU (DNA:RNA)
RNA: B1 RNA with A25C, G26A, G29A, C30U, C31U
DNA 1: CAATCTGAATTCCGGTCTCCC
DNA 2: TGGTGGCTACGACGGGATT
B6: UAUCUUU (DNA:RNA)
RNA: GGGAGACCGGAAUUCAGAUUGUCCUAUCUUUUUAAAUCCCGUCGUAGCCACCA
DNA 1: CAATCTGAATTCCGGTCTCCC
DNA 2: TGGTGGCTACGACGGGATT
B7: AAAUCGU (DNA:RNA)
RNA: B6 RNA with U25A, U27A, C28U, U29C, U30G
DNA 1: CAATCTGAATTCCGGTCTCCC
DNA 2: TGGTGGCTACGACGGGATT
B8: ACUCUGC (DNA:RNA)
RNA: B6 RNA with U25A, A26C, U30G, U31C
DNA 1: CAATCTGAATTCCGGTCTCCC
DNA 2: TGGTGGCTACGACGGGATT
B9: AUACCGA (DNA:RNA)
RNA: B1 RNA with G26U, C27A, A28C, G29C, C30G, C31A
DNA 1: CAATCTGAATTCCGGTCTCCC
DNA 2: TGGTGGCTACGACGGGATT
B10: CGUUGUU (DNA:RNA)
RNA: B6 RNA with U25C, A26G, C28U, U29G
DNA 1: CAATCTGAATTCCGGTCTCCC
DNA 2: TGGTGGCTACGACGGGATT
B11: GUCCAGU (DNA:RNA)
RNA: B6 RNA with U25G, A26U, U27C, U29A, U30G
DNA 1: CAATCTGAATTCCGGTCTCCC
DNA 2: TGGTGGCTACGACGGGATT
B12: UAGGGCG (DNA:RNA)
RNA: B1 RNA with A25U, G26A, C27G, A28G, C31G
DNA 1: CAATCTGAATTCCGGTCTCCC
DNA 2: TGGTGGCTACGACGGGATT
B13: ACGCAUU (DNA:RNA)
RNA: B6 RNA with U25A, A26C, U27G, U29A
DNA 1: CAATCTGAATTCCGGTCTCCC
DNA 2: TGGTGGCTACGACGGGATT
B14: GGUAUGC (DNA:RNA)
RNA: B1 RNA with A25G, C27U, G29U, C30G
DNA 1: CAATCTGAATTCCGGTCTCCC
DNA 2: TGGTGGCTACGACGGGATT
B15: UGAGGAU (DNA:RNA)
RNA: B1 RNA with A25U, C27A, A28G, C30A, C31U
DNA 1: CAATCTGAATTCCGGTCTCCC
DNA 2: TGGTGGCTACGACGGGATT
B16: UAUUGGG (DNA:RNA)
RNA: B6 RNA with C28U, U29G, U30G, U31G
DNA 1: CAATCTGAATTCCGGTCTCCC
DNA 2: TGGTGGCTACGACGGGATT
B17: UCUCUUU (DNA:RNA)
RNA: B6 RNA with A26C
DNA 1: CAATCTGAATTCCGGTCTCCC
DNA 2: TGGTGGCTACGACGGGATT
B18: AGAGUCG (DNA:RNA)
RNA: B1 RNA with C27A, A28G, G29U, C31G
DNA 1: CAATCTGAATTCCGGTCTCCC
DNA 2: TGGTGGCTACGACGGGATT
B19: UAAUUGA (DNA:RNA)
RNA: B6 RNA with U27A, C28U, U30G, U31A
DNA 1: CAATCTGAATTCCGGTCTCCC
DNA 2: TGGTGGCTACGACGGGATT
B20: AUAGCCC (DNA:RNA)
RNA: B1 RNA with G26U, C27A, A28G, G29C
DNA 1: CAATCTGAATTCCGGTCTCCC
DNA 2: TGGTGGCTACGACGGGATT

target: T1, RBFOX1 RRM RbFoxmut (Fox-RRM*); test: EMSA; HiTS-Eq, 1 nM pool, 10 min; buffer printed only for the single-RNA assays: 10 mM Tris pH 7.5, 150 mM NaCl, 3.4 mM EDTA, 0.001% NP-40, 30 C; conditions: tags: His6 N-terminal (pET28a); label: 5' 32P
Method in brief: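 A pool of RNA with 7 randomized nucleotides, 5′-radiolabelled and with DNA-annealed flanks, was equilibrated at 1 nM for 10 min in 50 µL with purified RbFox RRM, wild type or mutant, across increasing protein concentrations. Free RNA was separated by 8% native PAGE, excised, reverse-transcribed, barcoded by PCR and sequenced. Relative association constants were obtained from read-count changes of each RNA species versus the control reaction and normalised to the cognate motif.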

Point of comparison: B7, binding signal 0.075 KA relative to UGCAUGU. Against it:
- B1 — higher, 0.0801 KA relative to UGCAUGU
- B2 — higher, 0.0949 KA relative to UGCAUGU
- B3 — higher, 0.0878 KA relative to UGCAUGU
- B4 — higher, 0.126 KA relative to UGCAUGU
- B5 — lower, 0.0674 KA relative to UGCAUGU
- B6 — lower, 0.0747 KA relative to UGCAUGU
- B8 — lower, 0.0685 KA relative to UGCAUGU
- B9 — higher, 0.0962 KA relative to UGCAUGU
- B10 — higher, 0.121 KA relative to UGCAUGU
- B11 — higher, 0.117 KA relative to UGCAUGU
- B12 — higher, 0.0883 KA relative to UGCAUGU
- B13 — higher, 0.0987 KA relative to UGCAUGU
- B14 — higher, 0.398 KA relative to UGCAUGU
- B15 — higher, 0.0968 KA relative to UGCAUGU
- B16 — higher, 0.102 KA relative to UGCAUGU
- B17 — lower, 0.0529 KA relative to UGCAUGU
- B18 — higher, 0.11 KA relative to UGCAUGU
- B19 — lower, 0.0673 KA relative to UGCAUGU
- B20 — higher, 0.0854 KA relative to UGCAUGU
